Reference: the supplement of paper PMC11417369
± gives the standard deviation of the averaged measurements. The list shows a part of the results.

system: PfAP2-LT AP2 domain (GST-tagged); assay: gcPBM binding intensity (ln(normalized median fluorescence intensity)); higher = stronger DNA binding
Procedure, shortened: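 For binding intensity, the highest Masliner-normalised natural-log median intensity across replicate spots of either probe orientation was taken. Protein bound to the array was stained with Alexa488 anti-GST antibody and scanned at 488 nm. The protein, GST-tagged P. falciparum DNA-binding domains from E. coli at about 25 μg on average, had been applied for 1 h to an Agilent 4 × 180k array of primer-extended double-stranded 36-bp intergenic genomic probes and negative controls.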

“AATGCTTTTCATCAAGTGCAATATGTTAATACAAAC [GTGCAC_site9619]” and “AGAAAAAAAAAAAAAAAACACACGGTACATTCAAAG [CACACA_site2]” are within error of each other in “gcPBM binding intensity (ln)” value: 8.64 ± 0.38 for the first, 8.84 ± 0.43 for the second.

“TAATTTTCATATTTCTGTACATATATTATAAATATA [XGTACX_site3480]” and “TAATATATATATATTACACACACGTATTATTAAATA [CACACA_site432]” are within error of each other in “gcPBM binding intensity (ln)” value: 8.48 ± 0.4 for the first, 9.09 ± 0.3 for the second.

TGTATGTATAATTGAGTGCACAGAAAAAAAAAAGAA and “TCATATATGGGTAGTATACACACTGTATATTTAGGA [CACACA_site2844]” are within error of each other in “gcPBM binding intensity (ln)” value: 8.88 ± 0.59 for the first, 8.86 ± 0.43 for the second.

“TTTGCCCAAAAAGGTACACACCACAATGTACATAAA [CACACA_site4599]” and “TTTTATTTAAATACACGTACATAATGTATATATATA [XGTACX_site7160]” are within error of each other in “gcPBM binding intensity (ln)” value: 8.85 ± 0.49 for the first, 8.64 ± 0.39 for the second.

“AAAAAAAAAAAACACACACACACAAATATATAAAAA [CACACA_site1171]” and “ATACCTTCTTTTATGTTTAATTAATATACTTTTTAT [CACACA_negctrl_site1557]” are within error of each other in “gcPBM binding intensity (ln)” value: 9.77 ± 0.31 for the first, 8.96 ± 0.55 for the second.

First: GTATAAAAGTTATATACACACAACAGAATTACATAT [CACACA_site6212]
Second: TTTGAAAAAAATTAATGTACATTTGAAATGACATAT [XGTACX_site3902]
The “gcPBM binding intensity (ln)” value of the first is higher: 9.21 ± 0.41 for the first, 8.37 ± 0.43 for the second.

“AATACATACATACATACACACATATAAATATATTAT [CACACA_site7650]” and “TACTAATATAATAAAAGTACTTAAATAAATATATGT [XGTACX_site2220]” are within error of each other in “gcPBM binding intensity (ln)” value: 9.42 ± 0.38 for the first, 8.73 ± 0.39 for the second.

“GAACATTTCACACAAAAAAAAAAAAATATATATATA [TGCATGCA_negctrl_site518]” and “ACATGATGTCATAAATGTACGCACACATACATAAAC [XGTACX_site1198]” are within error of each other in “gcPBM binding intensity (ln)” value: 8.96 ± 0.28 for the first, 9.24 ± 0.3 for the second.

“TCTTTTTAAATATATACACACCGTGTCTACAGATAC [CACACA_site5784]” and “TAAATAAAAAAAAATCGTACATATATTTTATATATG [XGTACX_site3293]” are within error of each other in “gcPBM binding intensity (ln)” value: 9.07 ± 0.46 for the first, 8.35 ± 0.51 for the second.

“TTTTCAAAAATATACACACACATAAATATCTGTATA [CACACA_site4586]” and “TCGTAATAATAGTTGAGTACGCACTAATATGTCAAT [XGTACX_site643]” are within error of each other in “gcPBM binding intensity (ln)” value: 9.35 ± 0.23 for the first, 9.09 ± 0.44 for the second.

“TATTTACATTTTAGTAGTACATATATGTATATATAT [XGTACX_site6839]” and “AATTATATGCTTAATACGCACACGGGAAAAAAAAAA [CACACA_site1376]” are within error of each other in “gcPBM binding intensity (ln)” value: 8.86 ± 0.48 for the first, 9.01 ± 0.47 for the second.

“ACATATCTATCGTTTTTAATTGTATATTATTATAAC [TGCATGCA_negctrl_site144]” and “TGTTTGTAATTATGTATGCACTTTTTTGTATGTGTG [GTGCAC_site9668]” are within error of each other in “gcPBM binding intensity (ln)” value: 8.86 ± 0.38 for the first, 9.12 ± 0.42 for the second.

In the case of “TCTTGTATATGTTAAAGTACACAACAATATATATAT [XGTACX_site6814]”, the “gcPBM binding intensity (ln)” value is reported as 8.7 ± 0.34.
